PubChem BioAssay AID1346428 (National Center for Advancing Translational Sciences (NCATS), 2018)
Several values for one entry are separate records, joined by “and”; a condition that tells them apart may be missing. Identical values can stand only once. Out of some 48,000 compounds screened, about 1,200 (2.5%) were called active. About 2% were inconclusive and are not listed.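 Rule for the calls: active = activation of at least 60% and not above a set upper limit (about 1 call in 100 departs from these limits); inconclusive = activation of 40% to 60%, or above that upper limit; inactive = activation under 40%.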 The list shows a part of the results.

Target: Probable G-protein coupled receptor 32 (Homo sapiens) (UniProt O75388)
Assay: qHTS for Agonists of Human Resolvin D1 Receptor DRV1; note: 0% is about no effect
Details: CHO-K1 GPR32 beta-arrestin PathHunter luminescence, 90 min; at 76.9 µM; active compounds read high; zero percent set by DMSO-only wells
How it was run: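 Agonism was scored as beta-arrestin recruitment to ProLink-fused GPR32 in stably transfected CHO-K1 cells, giving a chemiluminescent beta-Gal signal; compounds were incubated 90 min at 37 °C.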

Chain of UniProt O75388 (O75388 whole entry, looked up): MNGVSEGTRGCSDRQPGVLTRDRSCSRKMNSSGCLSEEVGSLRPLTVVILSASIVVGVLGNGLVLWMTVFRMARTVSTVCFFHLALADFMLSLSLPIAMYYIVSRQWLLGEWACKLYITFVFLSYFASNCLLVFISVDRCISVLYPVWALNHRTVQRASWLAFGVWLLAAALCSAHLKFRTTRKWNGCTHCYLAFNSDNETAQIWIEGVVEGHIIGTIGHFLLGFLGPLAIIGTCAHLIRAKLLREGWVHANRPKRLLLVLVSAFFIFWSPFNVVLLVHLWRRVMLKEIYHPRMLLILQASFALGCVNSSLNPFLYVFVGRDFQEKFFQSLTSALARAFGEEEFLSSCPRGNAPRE

activation, inactive:
COc1ccc(Cn2c(C(=O)O)c(CNC3CCC(C)CC3)c3ccc(C)cc32)cc1 (stereo not drawn) 4.98%, COc1ccc(CC(=O)N2CC(=O)Nc3ccc(Br)cc3C2c2ccc(F)cc2)cc1OC (stereo not drawn) -13.6%, COc1cc2nc(NCc3ccccc3Cl)n3nc(-c4cccnc4)nc3c2cc1OC -3.37%, COC(=O)c1ccc(NC(=O)CC2C(=O)N(c3ccccc3)C(=O)N2C2CCCC2)cc1 (stereo not drawn) -22.5%, CCOc1ccc(Nc2c(S(=O)(=O)c3ccc(C)cc3)cnc3ccc(OC)cc23)cc1 -43.4%, CC(=O)N1CCCc2cc(S(=O)(=O)NCc3ccc(N(C)C)cc3)ccc21 13%, COc1cccc(CNC(=O)c2cc(-c3cccs3)nc3ccccc23)c1 4.17%, COCCCNC(=O)CSc1nc2nc(C)c(Cc3ccccc3Cl)c(C)n2n1 -0.387%, Cn1nc(-c2ccccc2)c(-c2ccccc2)c(C(=O)Nc2ccc(S(N)(=O)=O)cc2)c1=O -6.61%, COc1cccc(C(=O)Nc2ccc3nc(SCc4ccc(C)cc4)sc3c2)c1 19.7%, Cc1cccc(-n2c(SCC(=O)Nc3ccccc3Cl)nc3n[nH]c(C)c3c2=N)c1 -14%, Cc1cc(C)cc(NC(=O)CSCc2cc(=O)c3cc(Cl)ccc3[nH]2)c1 -4.99%, Cc1cccc(NC(=O)Cn2nc(C)c3nn(-c4ccc(Cl)cc4)c(C)c3c2=O)c1C -10.6%, COc1ccccc1N1CCN(C(=O)c2ccc3c(c2)N(Cc2ccccc2)C(=O)c2ccccc2S3(=O)=O)CC1 -15.5%, Cc1ccc(N2CCN(Cc3nnc(-c4ccc5c(c4)OCO5)o3)CC2)c(C)c1 10.4%, Cc1cccc(-c2noc(CN(C(C)C)S(=O)(=O)c3ccc(Br)cc3)n2)c1 -24.7%, CC1(C)CC(=O)c2cc(-c3nc(-c4ccc(Br)cc4)cs3)c(=O)n(-c3ccccc3)c2C1 -9.41%, O=C(c1cnc(N2CCOCC2)c2ccccc12)N1CCN(c2ccc(F)cc2)CC1 -10.2%, Cc1c(-c2nc(-c3ccc4c(c3)[nH]c(=O)n4C)no2)cccc1[N+](=O)[O-] -0.814%, O=C(CSc1nnc(-c2cccs2)o1)Nc1cccc(C(F)(F)F)c1 33.8%, Cc1cccc(N2C(=O)CSC23C(=O)N(CC(=O)NCCc2ccccc2)c2ccccc23)c1 (stereo not drawn) -19%, O=C1c2ccccc2-c2onc3c(Br)cc(NC4CCCCC4)c1c23 -7.21%, CN1C(C(=O)Nc2ccccn2)=C(O)c2ccccc2S1(=O)=O -39.1% and -5%, COc1c(C)c2c(c(O)c1C/C=C(\C)CCC(=O)OCCN1CCOCC1)C(=O)OC2 4.12%, COCCNC(=O)CSc1nc2cc3c(cc2c(=O)n1CCCCCC(=O)NCCc1ccc(OC)c(OC)c1)OCO3 -16.3%, COc1ccc(-c2cc(C(F)(F)F)n3nc(-c4ccc(Cl)cc4)cc3n2)cc1OC -1.66%, Cc1c(CC(=O)N2CCCCC2)c(=O)oc2c(C)c(O)ccc12 -0.657%, COCCOC(=O)C1=C(C)NC(C)=C(C(=O)OC(C)C)C1c1cccc([N+](=O)[O-])c1 (stereo not drawn) 7.26% and -28.5%, Cc1cc2c(cc1S(=O)(=O)CCC(=O)NCc1ccccc1)OCC(=O)N2 -1.23%, O=C(Cc1ccccc1)NC1CC(=O)N(c2ccc3c(c2)OCCO3)C1 (stereo not drawn) 4.55%, NCCS -7.34% and -14.5%, O=C(OCc1ccccc1F)c1ccc(-c2nnn(Cc3ccccc3)n2)cc1 -6.27%, CCN(CC)c1ccc(NC(=O)C(NS(=O)(=O)c2cccs2)C(C)C)c(C)c1 (stereo not drawn) -19.3%, CCn1nc(-c2ccccc2)c(-c2ccccc2)c(C(=O)Nc2ccccc2C(N)=O)c1=O -8.13%, CN(C(=O)c1cnc(N2CCOCC2)c2ccccc12)c1ccccc1F -8.95%, COc1ccc(-n2nnnc2C2CCN(S(=O)(=O)c3cccc(Cl)c3C)CC2)cc1 -11.8%, CCCOc1ccc2c(c1)CC[C@@H]1[C@@H]2CC[C@]2(C)C(OC)CC[C@@H]12 (stereo partly drawn) 44.9%, COC(=O)CCc1ccc(OCC(O)CNC(C)C)cc1 (stereo not drawn) -5.32%, COc1ccccc1Cn1c(CNS(=O)(=O)c2ccc(Cl)s2)nc2cccnc21 -40.7%, CCOc1ccccc1CNS(=O)(=O)c1cnc(N)nc1 -6.38%, CCC(=O)N1CCc2cc(Br)cc(S(=O)(=O)N3CCCC(C(=O)Nc4ccc(CC)cc4)C3)c21 (stereo not drawn) 21.8%, CCOC(=O)c1cccc(NC(=O)Cc2ccc(NC(=O)N3CCCCc4ccccc43)cc2)c1 3.67%, COc1ccc(-n2c(CCC(=O)O)ccc2-c2ccccc2)cc1 -27.6%, CC(=O)c1cccc(NC(=O)Cn2cnc3c2c(=O)n(C)c(=O)n3C)c1 -9.87%, CCOC(=O)c1c(C)[nH]c(C)c1S(=O)(=O)N1CCCC(C(=O)N2CCN(c3ccc(Cl)cc3)CC2)C1 (stereo not drawn) -9.92%, Cc1ccc(C)c(NC(=O)CCn2cnnn2)c1 6.92%, O=C1Nc2c(c(=O)[nH]c(=O)n2-c2ccc(Cl)cc2)C1(NS(=O)(=O)c1ccccc1)C(F)(F)F (stereo not drawn) 4.05%, CCOC(=O)c1ccc(N2CCN(c3cccc(Cl)c3)CC2)c(NC(=O)Nc2ccc(Cl)cc2)c1 -8.81%, CCOC(=O)c1[nH]c(C)c(CCC(=O)N2CCN(c3cc(Cl)ccc3C)CC2)c1C -4.69%, Cc1nnc(N2CCN(c3ccccc3)CC2)c2c1nnn2Cc1ccc(F)cc1 -7.93%, O=C(Nc1ccccc1C(=O)OCc1cc(=O)n2c3c(sc2n1)CCCC3)c1ccc(Cl)cc1 -15.2%, O=C(Nc1ccc(F)cc1F)c1ccc(-c2ccccc2)s1 28.2%, CCCCOC(=O)c1ccc(NC(=O)c2ccc3c(c2)CCN3S(=O)(=O)c2ccccc2)cc1 -13.7%, Nc1c(C(=O)c2ccc3c(c2)OCO3)sc(Nc2ccccc2F)c1S(=O)(=O)c1ccccc1 -12.7%, COc1ccc(C)cc1N(CC(=O)N1CCC(C)CC1)S(=O)(=O)c1ccc(C)cc1 -1.34%, Cc1ccc2nc(CSc3nnc(NC(=O)COc4ccccc4F)s3)cc(=O)n2c1 12.8%, Cn1c(=O)c2c(-c3ccccc3Br)n(C(C)(C)C)cc2n(C)c1=O 26.7%, O=C(CCCn1c(=O)c2sccc2n(Cc2c(F)cccc2Cl)c1=O)NCc1ccccc1 -0.0539%, Cc1cnc2c(c1SCC(=O)N(C)c1ccccc1)c(=O)n(C)c(=O)n2C -7.42%, CCCC(=O)Nc1ccc2nn(-c3ccc(CC)cc3)nc2c1 7.04%, CCOC(=O)CSc1nc2sc3c(c2c(=O)n1CC)CCCC3 18.2%, COc1ccc(C2CC(=O)c3cc(-c4nc(-c5cccc([N+](=O)[O-])c5)cs4)c(=O)n(-c4cc(C)cc(C)c4)c3C2)cc1 (stereo not drawn) -3.01%, CCOc1cc2sc(N3CCC(C(=O)Nc4ccccc4Cl)CC3)nc2cc1Br 5.16%, Cc1ccc(CN2CCC(CNC(=O)c3cc4ccc5cccnc5c4[nH]3)CC2)cc1 1.03%, Cc1cc(S(=O)(=O)C(CNC(=O)COc2ccccc2)c2cccs2)ccc1F (stereo not drawn) -10.8%, Cc1ccc(-c2nn(CC(=O)NC3CCCC3)c3c2cnc2ccc(F)cc23)cc1C -19%, O=C(Nc1ccc2nc(SCc3ccccc3)sc2c1)c1cccc(F)c1 6.03%, COc1ccc(NC(=O)CCN2CCN(CCO)CC2)c(OC)c1 7.89%, COc1ccc(Oc2nc3c(c(=O)n(C)c(=O)n3C)n2Cc2ccccc2Cl)cc1 14.7%, COc1ccccc1Cn1cc(C(=O)c2ccc(Cl)cc2)c(=O)c2cc3c(cc21)OCCO3 16.8%, COc1ccc(OCCSc2nc(C)c(Cc3ccccc3)c(=O)[nH]2)cc1 -17.7%, CCSc1oc(-c2ccc(F)cc2)nc1S(=O)(=O)c1ccc(C)cc1 -22.4%, Cc1cc(OCC(=O)Nc2cc(-c3nc4ccccc4[nH]3)ccc2C)ccc1Cl 18.3%, CC(C(=O)Nc1ccc(F)c(Cl)c1)N1Cc2ccccc2C1=O (stereo not drawn) -4.12%, COc1ccc(-c2noc(N3CCN(c4cccc(Cl)c4)CC3)n2)cc1OC 1.18%, CCc1sc(Nc2ccc(Cl)cc2)nc1-c1cc2cccc(OC)c2oc1=O -32.9%, CN1CCN(C(=O)c2ccc3c(c2)N(Cc2c(F)cccc2Cl)C(=O)c2ccccc2S3)CC1 20.9%, COc1ccccc1CNC(=O)COc1cc(=O)n(C)c2ccccc12 4.69%, CCOc1cc(C(=O)Nc2nnc3n2CCS3)cc(OCC)c1OCC 3.54%, CCOc1ccc(C(=O)CSc2nnc3cc(C)c4ccccc4n23)cc1 -6.63%, Cc1ccccc1C(=O)Nc1nnc(SCc2cc(=O)n3ccccc3n2)s1 2.14%, CC(=O)c1cccc(S(=O)(=O)N2CCN(c3ccccc3F)CC2)c1 -17.7%, CC(C)(C)c1ccc(C(=O)NCC(c2cccs2)S(=O)(=O)c2ccc(F)cc2)cc1 (stereo not drawn) -5.12%
